Reference: the supplement of paper PMC8728848
Some of the results follow.

Key:
Assay in all cases: glycan array binding signal (z-score within array); higher = stronger binding
Details in all cases: glycan notation: IUPAC condensed, linker removed
[1] = target: Gal(b1-4)GlcNAc(b1-3)Gal(b1-4)GlcNAc(b1-3)Gal(b1-4)GlcNAc(b1-3)Gal(b1-4)GlcNAc(b1-2)Man(a1-3)[Gal(b1-4)GlcNAc(b1-3)Gal(b1-4)GlcNAc(b1-3)Gal(b1-4)GlcNAc(b1-3)Gal(b1-4)GlcNAc(b1-2)Man(a1-6)]Man(b1-4)GlcNAc(b1-4)GlcNAc
Summary of the method: (§1)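 Columns mapping to the same glycan were averaged after glycan names were converted to IUPAC-condensed notation. The data come from 3228 arrays in the Consortium for Functional Glycomics database, limited to those with an available protein sequence. Binding is reported as a within-array Z-score averaged across arrays of one protein sequence and across linkers.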

[2] = target: Gal(b1-4)GlcNAc(b1-3)Gal(b1-4)GlcNAc(b1-3)Gal(b1-4)GlcNAc(b1-3)Gal(b1-4)GlcNAc(b1-2)Man(a1-3)[Gal(b1-4)GlcNAc(b1-3)Gal(b1-4)GlcNAc(b1-3)Gal(b1-4)GlcNAc(b1-3)Gal(b1-4)GlcNAc(b1-2)Man(a1-6)]Man(b1-4)GlcNAc(b1-4)[Fuc(a1-6)]GlcNAc
Summary of the method: as §1

[3] = target: Gal(b1-4)GlcNAc(b1-3)Gal(b1-4)GlcNAc(b1-3)Gal(b1-4)GlcNAc(b1-3)Gal(b1-4)GlcNAc(b1-2)[Gal(b1-4)GlcNAc(b1-3)Gal(b1-4)GlcNAc(b1-3)Gal(b1-4)GlcNAc(b1-3)Gal(b1-4)GlcNAc(b1-6)]Man(a1-6)[Gal(b1-4)GlcNAc(b1-3)Gal(b1-4)GlcNAc(b1-3)Gal(b1-4)GlcNAc(b1-3)Gal(b1-4)GlcNAc(b1-2)Man(a1-3)]Man(b1-4)GlcNAc(b1-4)[Fuc(a1-6)]GlcNAc
Summary of the method: as §1

[4] = target: Gal(b1-4)GlcNAc(b1-3)Gal(b1-4)GlcNAc(b1-3)Gal(b1-4)GlcNAc(b1-3)Gal(b1-4)GlcNAc(b1-3)Gal(b1-4)GlcNAc(b1-2)Man(a1-3)[Gal(b1-4)GlcNAc(b1-3)Gal(b1-4)GlcNAc(b1-3)Gal(b1-4)GlcNAc(b1-3)Gal(b1-4)GlcNAc(b1-3)Gal(b1-4)GlcNAc(b1-2)Man(a1-6)]Man(b1-4)GlcNAc(b1-4)GlcNAc
Summary of the method: as §1

[5] = target: Gal(b1-4)GlcNAc(b1-3)Gal(b1-4)GlcNAc(b1-3)Gal(b1-4)GlcNAc(b1-3)Gal(b1-4)GlcNAc(b1-3)Gal(b1-4)GlcNAc(b1-2)Man(a1-3)[Gal(b1-4)GlcNAc(b1-3)Gal(b1-4)GlcNAc(b1-3)Gal(b1-4)GlcNAc(b1-3)Gal(b1-4)GlcNAc(b1-3)Gal(b1-4)GlcNAc(b1-2)Man(a1-6)]Man(b1-4)GlcNAc(b1-4)[Fuc(a1-6)]GlcNAc
Summary of the method: as §1

[6] = target: Gal(b1-4)GlcNAc(b1-3)Gal(b1-4)GlcNAc(b1-3)Gal(b1-4)GlcNAc(b1-3)Gal(b1-4)GlcNAc(b1-3)Gal(b1-4)GlcNAc(b1-2)[Gal(b1-4)GlcNAc(b1-3)Gal(b1-4)GlcNAc(b1-3)Gal(b1-4)GlcNAc(b1-3)Gal(b1-4)GlcNAc(b1-3)Gal(b1-4)GlcNAc(b1-6)]Man(a1-6)[Gal(b1-4)GlcNAc(b1-3)Gal(b1-4)GlcNAc(b1-3)Gal(b1-4)GlcNAc(b1-3)Gal(b1-4)GlcNAc(b1-3)Gal(b1-4)GlcNAc(b1-2)Man(a1-3)]Man(b1-4)GlcNAc(b1-4)[Fuc(a1-6)]GlcNAc
Summary of the method: as §1

[7] = target: Gal(b1-4)GlcNAc(b1-3)Gal(b1-4)GlcNAc(b1-3)Gal(b1-4)GlcNAc(b1-3)Gal(b1-4)GlcNAc(b1-3)Gal(b1-4)GlcNAc(b1-3)Gal(b1-4)GlcNAc(b1-2)Man(a1-3)[Gal(b1-4)GlcNAc(b1-3)Gal(b1-4)GlcNAc(b1-3)Gal(b1-4)GlcNAc(b1-3)Gal(b1-4)GlcNAc(b1-3)Gal(b1-4)GlcNAc(b1-3)Gal(b1-4)GlcNAc(b1-2)Man(a1-6)]Man(b1-4)GlcNAc(b1-4)GlcNAc
Summary of the method: as §1

[8] = target: Gal(b1-4)GlcNAc(b1-3)Gal(b1-4)GlcNAc(b1-3)GalNAc
Summary of the method: as §1

[9] = target: Gal(b1-4)GlcNAc(b1-3)Gal(b1-4)GlcNAc(b1-3)[Gal(b1-4)GlcNAc(b1-3)Gal(b1-4)GlcNAc(b1-6)]GalNAc
Summary of the method: as §1

[10] = target: Gal(b1-4)GlcNAc(b1-3)Gal(b1-4)GlcNAc(b1-6)[Gal(b1-3)]GalNAc
Summary of the method: as §1

[11] = target: Gal(b1-4)GlcNAc(b1-3)Gal(b1-4)[Fuc(a1-3)]GlcNAc(b1-3)Gal(b1-4)[Fuc(a1-3)]GlcNAc
Summary of the method: as §1

[12] = target: Gal(b1-4)GlcNAc(b1-3)GalNAc
Summary of the method: as §1

[13] = target: Gal(b1-4)GlcNAc(b1-3)[Fuc(a1-3)GlcNAc(b1-6)]Gal(b1-4)Glc
Summary of the method: as §1

[14] = target: Gal(b1-4)GlcNAc(b1-3)[Gal(b1-4)GlcNAc(b1-6)]Gal(b1-4)GlcNAc
Summary of the method: as §1

[15] = target: Gal(b1-4)GlcNAc(b1-3)[GlcNAc(b1-6)]Gal(b1-4)GlcNAc
Summary of the method: as §1

[16] = target: Gal(b1-4)GlcNAc(b1-6)Gal(b1-4)GlcNAc
Summary of the method: as §1

[17] = target: Gal(b1-4)GlcNAc(b1-6)GalNAc
Summary of the method: as §1

[18] = target: Gal(b1-4)GlcNAc(b1-6)[Gal(b1-3)]GalNAc
Summary of the method: as §1

[19] = target: Gal(b1-4)GlcNAc(b1-6)[Gal(b1-4)GlcNAc(b1-3)]GalNAc
Summary of the method: as §1

Gal(b1-4)GlcNAc6P = target: Gal(b1-4)GlcNAc6P
Summary of the method: as §1

Gal(b1-6)Gal = target: Gal(b1-6)Gal
Summary of the method: as §1

Gal3S(b1-3)GalNAc = target: Gal3S(b1-3)GalNAc
Summary of the method: as §1

Gal3S(b1-3)GlcNAc = target: Gal3S(b1-3)GlcNAc
Summary of the method: as §1

[20] = target: Gal3S(b1-3)[Fuc(a1-4)]GlcNAc
Summary of the method: as §1

Gal3S(b1-4)Glc = target: Gal3S(b1-4)Glc
Summary of the method: as §1

Gal3S(b1-4)Glc6S = target: Gal3S(b1-4)Glc6S
Summary of the method: as §1

Gal3S(b1-4)GlcNAc = target: Gal3S(b1-4)GlcNAc
Summary of the method: as §1

[21] = target: Gal3S(b1-4)[Fuc(a1-3)]Glc6S
Summary of the method: as §1

[22] = target: Gal3S(b1-4)[Fuc(a1-3)]GlcNAc
Summary of the method: as §1

[23] = target: Gal3S(b1-4)[Fuc(a1-3)]GlcNAc6S
Summary of the method: as §1

Gal3S4S(b1-4)GlcNAc = target: Gal3S4S(b1-4)GlcNAc
Summary of the method: as §1

Gal3S6S(b1-4)GlcNAc = target: Gal3S6S(b1-4)GlcNAc
Summary of the method: as §1

Gal3S6S(b1-4)GlcNAc6S = target: Gal3S6S(b1-4)GlcNAc6S
Summary of the method: as §1

Gal4S(b1-4)GlcNAc = target: Gal4S(b1-4)GlcNAc
Summary of the method: as §1

Gal4S6S(b1-4)GlcNAc = target: Gal4S6S(b1-4)GlcNAc
Summary of the method: as §1

Gal6P(b1-4)GlcNAc = target: Gal6P(b1-4)GlcNAc
Summary of the method: as §1

Gal6S(b1-3)GlcNAc = target: Gal6S(b1-3)GlcNAc
Summary of the method: as §1

Gal6S(b1-3)GlcNAc6S = target: Gal6S(b1-3)GlcNAc6S
Summary of the method: as §1

B1: DC-Sign (Homo sapiens), Q9NNX6 (protein)
chain: MSDSKEPRLQQLGLLEEEQLRGLGFRQTRGYKSLAGCLGHGPLVLQLLSFTLLAGLLVQVSKVPSSISQEQSRQDAIYQNLTQLKAAVGELSEKSKLQEIYQELTQLKAAVGELPEKSKLQEIYQELTRLKAAVGELPEKSKLQEIYQELTWLKAAVGELPEKSKMQEIYQELTRLKAAVGELPEKSKQQEIYQELTRLKAAVGELPEKSKQQEIYQELTRLKAAVGELPEKSKQQEIYQELTQLKAAVERLCHPCPWEWTFFQGNCYFMSNSQRNWHDSITACKEVGAQLVVIKSAEEQNFLQLQSSRSNRFTWMGLSDLNQEGTWQWVDGSPLLPSFKQYWNRGEPNNVGEEDCAEFSGNGWNDDKCNLAKFWICKKSAASCSRDEEQFLSPAPATPNPPPA
**Q.** With B1 as the binder, how does the “glycan array binding signal (z-score)” value [1] read?
**A.** The value was -0.128.

**Q.** And the “glycan array binding signal (z-score)” value [2]?
**A.** Its value is -0.134.

**Q.** What about the “glycan array binding signal (z-score)” value [3] of the same binder?
**A.** Its value is -0.129.

**Q.** And the “glycan array binding signal (z-score)” value [4]?
**A.** Its value is -0.114.

**Q.** What about the “glycan array binding signal (z-score)” value [5] of the same binder?
**A.** Its value is -0.077.

**Q.** What about the “glycan array binding signal (z-score)” value [6] of the same binder?
**A.** The value was 0.536.

**Q.** And the “glycan array binding signal (z-score)” value [7]?
**A.** Its value is 0.26.

**Q.** What about the “glycan array binding signal (z-score)” value [8] of the same binder?
**A.** The value was -0.098.

**Q.** And the “glycan array binding signal (z-score)” value [9]?
**A.** Its value is -0.146.

**Q.** What about the “glycan array binding signal (z-score)” value [10] of the same binder?
**A.** The value was -0.097.

**Q.** And the “glycan array binding signal (z-score)” value [11]?
**A.** The value was -0.164.

**Q.** And the “glycan array binding signal (z-score)” value [12]?
**A.** Its value is -0.166.

**Q.** What about the “glycan array binding signal (z-score)” value [13] of the same binder?
**A.** Its value is -0.038.

**Q.** And the “glycan array binding signal (z-score)” value [14]?
**A.** Its value is -0.106.

**Q.** What about the “glycan array binding signal (z-score)” value [15] of the same binder?
**A.** The value was -0.185.

**Q.** And the “glycan array binding signal (z-score)” value [16]?
**A.** The value was -0.179.

**Q.** What about the “glycan array binding signal (z-score)” value [17] of the same binder?
**A.** Its value is -0.146.

**Q.** And the “glycan array binding signal (z-score)” value [18]?
**A.** The value was -0.171.

**Q.** What about the “glycan array binding signal (z-score)” value [19] of the same binder?
**A.** The value was -0.157.

**Q.** And the “glycan array binding signal (z-score)” value (Gal(b1-4)GlcNAc6P)?
**A.** Its value is -0.197.

**Q.** What about the “glycan array binding signal (z-score)” value (Gal(b1-6)Gal) of the same binder?
**A.** The value was -0.178.

**Q.** And the “glycan array binding signal (z-score)” value (Gal3S(b1-3)GalNAc)?
**A.** The value was -0.168.

**Q.** And the “glycan array binding signal (z-score)” value (Gal3S(b1-3)GlcNAc)?
**A.** The value was -0.136.

**Q.** What about the “glycan array binding signal (z-score)” value [20] of the same binder?
**A.** Its value is 0.246.

**Q.** What about the “glycan array binding signal (z-score)” value (Gal3S(b1-4)Glc) of the same binder?
**A.** The value was -0.167.

**Q.** What about the “glycan array binding signal (z-score)” value (Gal3S(b1-4)Glc6S) of the same binder?
**A.** Its value is -0.138.

**Q.** And the “glycan array binding signal (z-score)” value (Gal3S(b1-4)GlcNAc)?
**A.** Its value is -0.17.

**Q.** What about the “glycan array binding signal (z-score)” value [21] of the same binder?
**A.** Its value is -0.175.

**Q.** What about the “glycan array binding signal (z-score)” value [22] of the same binder?
**A.** Its value is -0.116.

**Q.** What about the “glycan array binding signal (z-score)” value [23] of the same binder?
**A.** The value was -0.178.

**Q.** What about the “glycan array binding signal (z-score)” value (Gal3S4S(b1-4)GlcNAc) of the same binder?
**A.** Its value is -0.195.

**Q.** What about the “glycan array binding signal (z-score)” value (Gal3S6S(b1-4)GlcNAc) of the same binder?
**A.** Its value is -0.125.

**Q.** What about the “glycan array binding signal (z-score)” value (Gal3S6S(b1-4)GlcNAc6S) of the same binder?
**A.** Its value is -0.135.

**Q.** And the “glycan array binding signal (z-score)” value (Gal4S(b1-4)GlcNAc)?
**A.** The value was -0.198.

**Q.** What about the “glycan array binding signal (z-score)” value (Gal4S6S(b1-4)GlcNAc) of the same binder?
**A.** The value was -0.149.

**Q.** What about the “glycan array binding signal (z-score)” value (Gal6P(b1-4)GlcNAc) of the same binder?
**A.** Its value is -0.209.

**Q.** What about the “glycan array binding signal (z-score)” value (Gal6S(b1-3)GlcNAc) of the same binder?
**A.** The value was -0.139.

**Q.** And the “glycan array binding signal (z-score)” value (Gal6S(b1-3)GlcNAc6S)?
**A.** Its value is -0.128.
